# Measurements: the supplement of paper PMC9135407
# Values joined by “and” are separate entries in the source; they are usually repeats but may differ in a detail not shown here. Equal values may be shown once. Where a name gives a salt, the structure may show the parent alone. About 620 (11%) of roughly 5,800 compounds showed activity.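 Rule for the calls: active = score above a cut-off or among the top three wells of a plate; in these data no inactive exceeds 0.85.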 Only a part is listed here, and it is no random draw.
# System: primary human hepatic stellate cells (donor 1)
# Assay: scaled lipid accumulation score (0 = DMSO-like, 1 = nortriptyline-like); higher = stronger HSC inactivation (lipid re-accumulation), active = hit call of the paper
# Details: 48 h
# [1] = library stock concentration: 10 mM
# [2] = library stock concentration: 6.8 mM
# [3] = library stock concentration: 3.33 mM
# [4] = library stock concentration: 6.4 mM
smiles,measurement,setting,value
CC[C@@]1(O)C[C@H](O[C@H]2C[C@H](N(C)C)[C@H](O)[C@H](C)O2)c2c(cc3c(c2O)C(=O)c2c(O)cccc2C3=O)[C@H]1C(=O)OC [Aklavine hydrochloride],scaled lipid accumulation score,[1],inactive: 0.23
N[C@@H](Cc1ccc(N(CCCl)CCCl)cc1)C(=O)O [Melphalan],scaled lipid accumulation score,library stock concentration: 6.6 mM,inactive: 0.027 and inactive: ≤ -0.001
CC(C)=CCOc1c2occc2cc2ccc(=O)oc12 [Imperatorin],scaled lipid accumulation score,[1],inactive: ≤ -0.07 and inactive: 0.108
CCN1C[C@]2(C)CC[C@H](OC)[C@@]34C1[C@]1(OCO[C@@]15C[C@H](OC)[C@H]1C[C@]3(O)[C@@H]5[C@H]1OC)[C@@H](OC(C)=O)[C@H]24 [Deltaline],scaled lipid accumulation score,,inactive: ≤ 0
CC(Cc1ccc(OCC(=O)O)cc1)NCC(O)c1cccc(Cl)c1 (stereo not drawn),scaled lipid accumulation score,[1],inactive: 0.056
OC1CCCCC1N1CCC(c2ccccc2)CC1 (stereo not drawn) [Vesamicol hydrochloride],scaled lipid accumulation score,[2],inactive: ≤ 0
same,scaled lipid accumulation score,[1],inactive: ≤ -0.027
OC1CCCCC1N1CCC(c2ccccc2)CC1 (stereo not drawn),scaled lipid accumulation score,[1],inactive: ≤ 0
CCCCCCC[n+]1ccc(-c2cc[n+](CCCCCCC)cc2)cc1 [DHBP dibromide],scaled lipid accumulation score,[1],inactive: ≤ 0
C=CCN1C[C@H](C)N([C@H](c2ccc(C(=O)N(CC)CC)cc2)c2cccc(OC)c2)C[C@H]1C,scaled lipid accumulation score,[1],inactive: 0.332 and inactive: 0.353
C=CCN1C[C@H](C)N([C@H](c2ccc(C(=O)N(CC)CC)cc2)c2cccc(O)c2)C[C@H]1C,scaled lipid accumulation score,[1],inactive: ≤ -0.006
CCCN1CCC[C@@H]2Cc3nc(N)ncc3C[C@H]21 [Quinelorane dihydrochloride],scaled lipid accumulation score,[1],inactive: ≤ 0
"CN(N=O)c1ccc(O)c(O)c1 [Me-3,4-dephostatin]",scaled lipid accumulation score,[1],inactive: ≤ -0.055
CC(N)Cc1c[nH]c2ccc(OCc3cccs3)cc12.Cl (stereo not drawn) [BW 723C86 hydrochloride],scaled lipid accumulation score,[1],active: 1.3
Cc1ccccc1-n1c(Cn2cnc3c(N)ncnc32)nc2cccc(C)c2c1=O,scaled lipid accumulation score,library stock concentration: 400 uM,inactive: ≤ -0.005
same,scaled lipid accumulation score,library stock concentration: 2 mM,inactive: ≤ -0.005
same,scaled lipid accumulation score,[1],inactive: 0.386
"CNCC(O)c1ccc(O)cc1 (racemic) [(+,-)-Synephrine]",scaled lipid accumulation score,,inactive: ≤ 0
Cn1cnc(CCN)c1 [1-Methylhistamine dihydrochloride],scaled lipid accumulation score,[1],inactive: ≤ -0.055
Cn1cnc(CCN)c1 [N ?-Methylhistamine dihydrochloride],scaled lipid accumulation score,[1],inactive: 0.004
C1CCc2nnnn2CC1 [Pentylenetetrazole],scaled lipid accumulation score,,inactive: 0.026
same,scaled lipid accumulation score,[1],inactive: 0.024 and inactive: ≤ 0
C=CCN=C=S,scaled lipid accumulation score,[1],inactive: ≤ 0
C=C1[C@@H]2CC[C@H]3[C@]4(C)C[C@H](O[C@@H]5O[C@H](CO)[C@@H](OS(=O)(=O)O)[C@H](OS(=O)(=O)O)[C@H]5OC(=O)CC(C)C)C[C@@H](C(=O)O)[C@H]4CC[C@]3(C2)[C@@H]1O [Atractyloside potassium salt],scaled lipid accumulation score,,inactive: ≤ 0
C=C[C@H]1CN2CC[C@H]1C[C@@H]2[C@@H](O)c1ccnc2ccccc12 [Cinchonine],scaled lipid accumulation score,,inactive: ≤ 0
same,scaled lipid accumulation score,[2],inactive: ≤ 0
same,scaled lipid accumulation score,[1],inactive: ≤ 0
CC(Cc1ccc(O)cc1)NCC(O)c1cc(O)cc(O)c1 (stereo not drawn) [Fenoterol hydrobromide],scaled lipid accumulation score,,inactive: ≤ 0
same,scaled lipid accumulation score,library stock concentration: 5.2 mM,inactive: ≤ 0
same,scaled lipid accumulation score,[1],inactive: ≤ 0 and inactive: 0.294
"C/C(=C\c1csc(C)n1)[C@@H]1C[C@@H]2O[C@]2(C)CCC[C@H](C)[C@H](O)[C@@H](C)C(=O)C(C)(C)[C@@H](O)CC(=O)O1 [Epothilone B (EPO906, Patupilone)]",scaled lipid accumulation score,[3],inactive: ≤ 0
same,scaled lipid accumulation score,[1],inactive: ≤ 0
C=CC[C@]1(O)CC[C@H]2[C@@H]3CCC4=CC(=O)CCC4=C3C=C[C@@]21C [Altrenogest],scaled lipid accumulation score,[3],inactive: ≤ 0
same,scaled lipid accumulation score,[4],inactive: ≤ 0
same,scaled lipid accumulation score,[1],inactive: 0.15
CN1C(=O)[C@]23CC4=CC=C[C@H](O)[C@H]4N2C(=O)[C@@]1(CO)SS3 [Gliotoxin],scaled lipid accumulation score,library stock concentration: 15.3 mM,inactive: 0.467
OC[C@@H]1CCCN2CCCC[C@H]12 [Lupinine],scaled lipid accumulation score,[1],inactive: 0.006
COc1cc2c3cc1Oc1cc(ccc1O)C[C@@H]1c4c(cc(OC)c(O)c4Oc4cccc(c4)C[C@@H]3N(C)CC2)CC[N+]1(C)C [Tubocurarine chloride pentahydrate (+)],scaled lipid accumulation score,,inactive: 0.039
CNCCc1ccc(O)c(O)c1 [N-Methyldopamine hydrochloride],scaled lipid accumulation score,[1],inactive: 0.327
Clc1cnc(Oc2ccc(Oc3ncc(Cl)cc3Cl)cc2)c(Cl)c1,scaled lipid accumulation score,[1],inactive: ≤ 0
O=C1C=CC(=O)c2c(O)cccc21 [Juglone],scaled lipid accumulation score,[1],inactive: 0.428
COC[C@H]1OC(=O)c2coc3c2[C@@]1(C)C1=C(C3=O)[C@@H]2CCC(=O)[C@@]2(C)C[C@H]1OC(C)=O [Wortmannin],scaled lipid accumulation score,[3],inactive: ≤ 0
same,scaled lipid accumulation score,[1],inactive: ≤ 0
C=C[C@H]1CN2CC[C@H]1C[C@H]2[C@H](O)c1ccnc2ccccc12 [(-)-Cinchonidine],scaled lipid accumulation score,,inactive: ≤ 0
C=C[C@H]1CN2CC[C@H]1C[C@H]2[C@H](O)c1ccnc2ccccc12 [Cinchonidine],scaled lipid accumulation score,[3],inactive: ≤ 0
same,scaled lipid accumulation score,[2],inactive: ≤ 0
same,scaled lipid accumulation score,[1],inactive: ≤ 0
Cc1cccc(C(C)c2c[nH]cn2)c1C (stereo not drawn) [Medetomidine hydrochloride],scaled lipid accumulation score,[1],inactive: ≤ -0.001
Cc1cccc(C(C)c2c[nH]cn2)c1C (stereo not drawn) [Medetomidine HCl],scaled lipid accumulation score,[3],inactive: ≤ 0
same,scaled lipid accumulation score,[1],inactive: 0.387
CC1=NCCc2c1[nH]c1cc(O)ccc21 [Harmalol hydrochloride],scaled lipid accumulation score,[1],inactive: ≤ 0
COc1ccc2c(c1)[C@]13CCCC[C@@H]1[C@H](C2)N(C)CC3 [Dextromethorphan hydrobromide],scaled lipid accumulation score,library stock concentration: 5.7 mM,inactive: 0.44
same,scaled lipid accumulation score,[1],inactive: 0.106
COc1ccc2c(c1)[C@]13CCCC[C@@H]1[C@H](C2)N(C)CC3 [Dextromethorphan hydrobromide monohydrate],scaled lipid accumulation score,,inactive: 0.376
same,scaled lipid accumulation score,[1],inactive: 0.707
COc1ccc2c(c1)[C@]13CCCC[C@@H]1[C@H](C2)N(C)CC3 [d-3-Methoxy-N-methylmorphinan hydrobromide],scaled lipid accumulation score,[1],inactive: 0.519
COc1c(C[C@@H](C)OC(=O)Oc2ccc(O)cc2)c2c3c(C[C@@H](C)OC(=O)c4ccccc4)c(OC)c(=O)c4c(O)cc(OC)c(c5c(OC)cc(O)c(c1=O)c52)c43 [Calphostin C],scaled lipid accumulation score,library stock concentration: 600 uM,inactive: 0.094
COc1ccc2c(c1)[nH]c1c(C)nccc12 [Harmine],scaled lipid accumulation score,library stock concentration: 9.4 mM,active: 0.851
O=C([O-])Cc1ccccc1.[Na+] [Sodium phenylacetate],scaled lipid accumulation score,library stock concentration: 12.6 mM,inactive: ≤ -0.006 and inactive: ≤ 0
CN1C[C@H](CNC(=O)OCc2ccccc2)C[C@@H]2c3cccc4c3c(cn4C)C[C@H]21 [Metergoline],scaled lipid accumulation score,[1],active: 0.893
N=C(NCc1ccc(Cl)cc1)SCCCc1c[nH]cn1 [Clobenpropit],scaled lipid accumulation score,[1],active: 0.903
CN1[C@@H]2CC(O)C[C@H]1[C@@H]1O[C@@H]12 (stereo partly drawn) [Scopine HCl],scaled lipid accumulation score,[3],inactive: 0.01
same,scaled lipid accumulation score,[1],inactive: ≤ 0
S=C(NC1CCCCC1)N1CCC(c2cnc[nH]2)CC1 [Thioperamide maleate],scaled lipid accumulation score,,inactive: ≤ 0
same,scaled lipid accumulation score,[1],inactive: ≤ 0
S=C(NC1CCCCC1)N1CCC(c2cnc[nH]2)CC1 [Thioperamide],scaled lipid accumulation score,[1],inactive: 0.01
C#CCN(C)C(C)Cc1ccccc1 (stereo not drawn) [Deprenyl],scaled lipid accumulation score,library stock concentration: 26.7 mM,inactive: 0.042
CC(=O)N(C)c1cccc(-c2ccnc3c(C(=O)c4cccs4)cnn23)c1 [Indiplon],scaled lipid accumulation score,[1],inactive: ≤ 0
CN1[C@@H]2CCC[C@H]1CC(=O)C2 [Pseudopelletierine hydrochloride],scaled lipid accumulation score,,inactive: ≤ 0
O=S(=O)(CC1CS1)c1ccc(Oc2ccccc2)cc1 (stereo not drawn),scaled lipid accumulation score,[3],inactive: ≤ -0.009
same,scaled lipid accumulation score,[1],inactive: ≤ 0
C[C@H](Cc1ccc(OCC(=O)O)cc1)NC[C@H](O)c1cccc(Cl)c1,scaled lipid accumulation score,[1],inactive: 0.03
N[C@@H](Cn1oc(=O)[nH]c1=O)C(=O)O [L-Quisqualic acid],scaled lipid accumulation score,[1],inactive: ≤ 0
"NC(N)=NOCC[C@H](N)C(=O)O [Canavanine sulfate monohydrate (L,+)]",scaled lipid accumulation score,,inactive: ≤ 0
NC(N)=NOCC[C@H](N)C(=O)O [L-Canavanine sulfate],scaled lipid accumulation score,[1],inactive: 0.106
NC(N)=NOCC[C@H](N)C(=O)O [L-Canavanine],scaled lipid accumulation score,[1],inactive: 0.174
NC(N)=NOCC[C@H](N)C(=O)O [Canavanine],scaled lipid accumulation score,[1],inactive: ≤ 0
CC(C)CC(N(C)C)C1(c2ccc(Cl)cc2)CCC1 (stereo not drawn) [Sibutramine],scaled lipid accumulation score,[1],inactive: ≤ 0
CC(C)CC(N(C)C)C1(c2ccc(Cl)cc2)CCC1 (stereo not drawn) [Sibutramine hydrochloride],scaled lipid accumulation score,library stock concentration: 6.3 mM,inactive: ≤ 0
same,scaled lipid accumulation score,[1],inactive: 0.131
CC(C)CC(N(C)C)C1(c2ccc(Cl)cc2)CCC1 (stereo not drawn),scaled lipid accumulation score,[1],inactive: ≤ 0
CC(C)CC(N(C)C)C1(c2ccc(Cl)cc2)CCC1 (stereo not drawn) [Sibutramine HCl],scaled lipid accumulation score,library stock concentration: 7.1 mM,inactive: 0.252
C=CCN1CC[C@]23c4c5ccc(O)c4O[C@H]2/C(=N/NC(=O)c2ccccc2)CC[C@@]3(O)[C@H]1C5 [Naloxone benzoylhydrazone],scaled lipid accumulation score,[1],inactive: 0.006
CCCCC/C=C\C/C=C\C/C=C\C/C=C\CCCC(=O)NCc1ccc(O)c(OC)c1 [Arvanil],scaled lipid accumulation score,library stock concentration: 1 mM,inactive: ≤ 0
C#C[C@]1(O)CC[C@H]2[C@@H]3CCC4=CC(=O)CC[C@]4(C)[C@H]3CC[C@@]21C [Ethisterone],scaled lipid accumulation score,,inactive: ≤ 0
same,scaled lipid accumulation score,[4],inactive: 0.134 and inactive: 0.803
same,scaled lipid accumulation score,[1],inactive: 0.757
C/C=C1/C[N+]2(C)CCC34C(=C(C=O)[C@H]1C[C@@H]32)Nc1ccccc14 (stereo partly drawn) [Fluorocurarine chloride],scaled lipid accumulation score,,inactive: ≤ 0
